This is one part of the list. Single values are uncertain, as repeats are few or missing.

The source of these data is the supplement of paper PMC4604168 (melanoma cell lines).
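Also: cell number obtained by counting DAPI-stained nuclei in high-throughput microscope images with image analysis software, screen run in 1,536-well plates.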

The first assay concerns RPMI7951. Kind of assay: cell count relative to DMSO control; melanoma cells; higher = more viable cells. The note with it: library dose: low library concentration; 72 h.
Compound `c1cc(-c2cnn3cc(-c4ccc(OCCN5CCCCC5)cc4)cnc23)ccn1` [Dorsomorphin] + O=C(Oc1ccc([N+](=O)[O-])cc1)N1CCC(C(O)(c2ccc3c(c2)OCO3)c2ccc3c(c2)OCO3)CC1 [JZL184] (first compound 0.4 µM, partner dose 1 µM) returned a cell count of 95.1%.
On the same count and under the same terms, the result for `Oc1cc(-c2nc(-c3ccccc3)[nH]c2-c2ccncc2)ccc1Cl` + O=C(Oc1ccc([N+](=O)[O-])cc1)N1CCC(C(O)(c2ccc3c(c2)OCO3)c2ccc3c(c2)OCO3)CC1 [JZL184] (first compound 0.2 µM, partner dose 1 µM) reads 79.1%; that for `Nc1ccn([C@@H]2O[C@H](CO)[C@@H](O)C2(F)F)c(=O)n1` [gemcitabine] + C/C(O)=C(\C#N)C(=O)Nc1cc(Br)ccc1Br [LFM-A13] (first compound 0.0004 µM, partner dose 2 µM), 82.9%; that for `CC(C)C[C@H](NC(=O)[C@H](Cc1ccccc1)NC(=O)c1cnccn1)B(O)O` [Bortezomib] + C/C(O)=C(\C#N)C(=O)Nc1cc(Br)ccc1Br [LFM-A13] (first compound 0.001 µM, partner dose 2 µM), 88.8%.
In the case of `CO[C@H]1C[C@@H]2CC[C@@H](C)[C@@](O)(O2)C(=O)C(=O)N2CCCC[C@H]2C(=O)O[C@H]([C@H](C)C[C@@H]2CC[C@@H](OCCO)[C@H](OC)C2)CC(=O)[C@H](C)/C=C(\C)[C@@H](O)[C@@H](OC)C(=O)[C@H](C)C[C@H](C)/C=C/C=C/C=C/1C` [everolimus] + Cc1cc(SCc2sc(-c3ccc(C(F)(F)F)c(F)c3)nc2C)ccc1OCC(=O)O [GW0742] (first compound 0.02 µM, partner dose 2 µM), the cell count is 91.9%.
Same read-out and setting: the result for `Nc1ccn([C@@H]2O[C@H](CO)[C@@H](O)C2(F)F)c(=O)n1` [gemcitabine] + O=C(Oc1ccc([N+](=O)[O-])cc1)N1CCC(C(O)(c2ccc3c(c2)OCO3)c2ccc3c(c2)OCO3)CC1 [JZL184] (first compound 0.0004 µM, partner dose 1 µM) reads 94.6%.
The same measure, in the same setting: the result for `Cc1nc(Nc2ncc(C(=O)Nc3c(C)cccc3Cl)s2)cc(N2CCN(CCO)CC2)n1` [dasatanib] + Cc1cc(SCc2sc(-c3ccc(C(F)(F)F)c(F)c3)nc2C)ccc1OCC(=O)O [GW0742] (first compound 0.004 µM, partner dose 2 µM) reads 56.8%; that for `COCC[n+]1c2c(n(Cc3cnccn3)c1C)C(=O)c1ccccc1C2=O` + Cc1cc(SCc2sc(-c3ccc(C(F)(F)F)c(F)c3)nc2C)ccc1OCC(=O)O [GW0742] (first compound 0.0004 µM, partner dose 2 µM), 95.4%.
The same measure, in the same setting: the figure for `Cc1cc(Nc2cc(N3CCN(C)CC3)nc(Sc3ccc(NC(=O)C4CC4)cc3)n2)n[nH]1` [Tozasertib] + C/C(O)=C(\C#N)C(=O)Nc1cc(Br)ccc1Br [LFM-A13] (first compound 0.006 µM, partner dose 2 µM) is 80.7%; for `Cc1cc(Nc2cc(N3CCN(C)CC3)nc(Sc3ccc(NC(=O)C4CC4)cc3)n2)n[nH]1` [Tozasertib] + C[As](C)SC[C@H](NC(=O)CC[C@H](N)C(=O)O)C(=O)NCC(=O)O [Darinaparsin] (first compound 0.006 µM, partner dose 0.4 µM) it is 110%; for `COc1ccc(COc2ccc(Cc3cnc(N)nc3N)cc2OC)cc1` + C/C(O)=C(\C#N)C(=O)Nc1cc(Br)ccc1Br [LFM-A13] (first compound 1 µM, partner dose 2 µM) it is 100%.
As for `O=C(O)c1ccc2c(c1)nc(Nc1cccc(Cl)c1)c1ccncc12` + O=C(Oc1ccc([N+](=O)[O-])cc1)N1CCC(C(O)(c2ccc3c(c2)OCO3)c2ccc3c(c2)OCO3)CC1 [JZL184] (first compound 0.4 µM, partner dose 1 µM), the cell count was determined as 90.5%.
Still for that read-out and setting: the figure for `COc1ccc(COc2ccc(Cc3cnc(N)nc3N)cc2OC)cc1` + Cc1cc(SCc2sc(-c3ccc(C(F)(F)F)c(F)c3)nc2C)ccc1OCC(=O)O [GW0742] (first compound 1 µM, partner dose 2 µM) is 85.7%; for `Clc1ccc(Nc2nnc(Cc3ccncc3)c3ccccc23)cc1` [vatalanib] + C[As](C)SC[C@H](NC(=O)CC[C@H](N)C(=O)O)C(=O)NCC(=O)O [Darinaparsin] (first compound 2 µM, partner dose 0.4 µM) it is 107%; for `CC(C)C[C@H](NC(=O)[C@H](Cc1ccccc1)NC(=O)c1cnccn1)B(O)O` [Bortezomib] + N.N.[Cl][Pt][Cl] [cisplatin] (first compound 0.001 µM, partner dose 1.6 µM) it is 70.7%.

A further assay has as its system RVH-421. The description is as above. As to conditions: library dose: low library concentration; 72 h.
`O=C1NC(=O)/C(=C/c2ccc(-c3ccc(F)cc3O)o2)S1` + O=C(Oc1ccc([N+](=O)[O-])cc1)N1CCC(C(O)(c2ccc3c(c2)OCO3)c2ccc3c(c2)OCO3)CC1 [JZL184] (first compound 1 µM, partner dose 1 µM): the cell count stood at 90.7%.
Take `O=C(O)c1ccc2c(c1)nc(Nc1cccc(Cl)c1)c1ccncc12` + C[As](C)SC[C@H](NC(=O)CC[C@H](N)C(=O)O)C(=O)NCC(=O)O [Darinaparsin] (first compound 0.4 µM, partner dose 0.4 µM): the cell count was found to be 80.2%.
For the compound `CN1CCN(c2ccc3nc(-c4c(N)c5c(F)cccc5[nH]c4=O)[nH]c3c2)CC1` [Dovitinib] + C/C(O)=C(\C#N)C(=O)Nc1cc(Br)ccc1Br [LFM-A13] (first compound 0.1 µM, partner dose 2 µM), the cell count came to 107%.
With `O=C(O)c1ccc2c(c1)nc(Nc1cccc(Cl)c1)c1ccncc12` + Cc1cc(SCc2sc(-c3ccc(C(F)(F)F)c(F)c3)nc2C)ccc1OCC(=O)O [GW0742] (first compound 0.4 µM, partner dose 2 µM), the cell count is 96.3%.
The same measure, in the same setting: the figure for `CN1CCN(c2ccc3nc(-c4c(N)c5c(F)cccc5[nH]c4=O)[nH]c3c2)CC1` [Dovitinib] + C[As](C)SC[C@H](NC(=O)CC[C@H](N)C(=O)O)C(=O)NCC(=O)O [Darinaparsin] (first compound 0.1 µM, partner dose 0.4 µM) is 80.2%; for `Cc1cc(Nc2cc(N3CCN(C)CC3)nc(Sc3ccc(NC(=O)C4CC4)cc3)n2)n[nH]1` [Tozasertib] + N.N.[Cl][Pt][Cl] [cisplatin] (first compound 0.006 µM, partner dose 1.6 µM) it is 89.3%; for `CN1CCN(c2ccc3nc(-c4c(N)c5c(F)cccc5[nH]c4=O)[nH]c3c2)CC1` [Dovitinib] + O=C(Oc1ccc([N+](=O)[O-])cc1)N1CCC(C(O)(c2ccc3c(c2)OCO3)c2ccc3c(c2)OCO3)CC1 [JZL184] (first compound 0.1 µM, partner dose 1 µM) it is 100%.
Take `Clc1ccc(Nc2nnc(Cc3ccncc3)c3ccccc23)cc1` [vatalanib] + C/C(O)=C(\C#N)C(=O)Nc1cc(Br)ccc1Br [LFM-A13] (first compound 2 µM, partner dose 2 µM): the cell count amounted to 106%.
Compound `CC(C)C[C@H](NC(=O)[C@H](Cc1ccccc1)NC(=O)c1cnccn1)B(O)O` [Bortezomib] + C[As](C)SC[C@H](NC(=O)CC[C@H](N)C(=O)O)C(=O)NCC(=O)O [Darinaparsin] (first compound 0.001 µM, partner dose 0.4 µM) registered a cell count of 48.3%.
In the case of `Cc1cc([N+](=O)[O-])ccc1NS(=O)(=O)c1cc(Cl)ccc1Cl` + O=C(Oc1ccc([N+](=O)[O-])cc1)N1CCC(C(O)(c2ccc3c(c2)OCO3)c2ccc3c(c2)OCO3)CC1 [JZL184] (first compound 1 µM, partner dose 1 µM), the cell count amounted to 5.58%.
On to `Cc1cc(Nc2cc(N3CCN(C)CC3)nc(Sc3ccc(NC(=O)C4CC4)cc3)n2)n[nH]1` [Tozasertib] + Cn1cc(C2=C(c3cn(C4CCN(Cc5ccccn5)CC4)c4ccccc34)C(=O)NC2=O)c2ccccc21 [Enzastaurin] (first compound 0.006 µM, partner dose 0.8 µM), for which the cell count is 127%.
Regarding `Cc1cc(Nc2cc(N3CCN(C)CC3)nc(Sc3ccc(NC(=O)C4CC4)cc3)n2)n[nH]1` [Tozasertib] + O=C(Oc1ccc([N+](=O)[O-])cc1)N1CCC(C(O)(c2ccc3c(c2)OCO3)c2ccc3c(c2)OCO3)CC1 [JZL184] (first compound 0.006 µM, partner dose 1 µM), the cell count came to 94.9%.
`Oc1cc(-c2nc(-c3ccccc3)[nH]c2-c2ccncc2)ccc1Cl` + C/C(O)=C(\C#N)C(=O)Nc1cc(Br)ccc1Br [LFM-A13] (first compound 0.2 µM, partner dose 2 µM) gave a cell count of 79.5%.
As to `O=C(O)C(=O)Nc1sc2c(c1C(=O)O)CCNC2` + O=C(Oc1ccc([N+](=O)[O-])cc1)N1CCC(C(O)(c2ccc3c(c2)OCO3)c2ccc3c(c2)OCO3)CC1 [JZL184] (first compound 1.66667 µM, partner dose 1 µM), the cell count came out at 97.4%.
On the same count and under the same terms, the figure for `C#Cc1cccc(Nc2ncnc3cc(OCCOC)c(OCCOC)cc23)c1` [erlotinib] + C[As](C)SC[C@H](NC(=O)CC[C@H](N)C(=O)O)C(=O)NCC(=O)O [Darinaparsin] (first compound 0.8 µM, partner dose 0.4 µM) is 92.5%; for `Clc1ccc(Nc2nnc(Cc3ccncc3)c3ccccc23)cc1` [vatalanib] + O=C(Oc1ccc([N+](=O)[O-])cc1)N1CCC(C(O)(c2ccc3c(c2)OCO3)c2ccc3c(c2)OCO3)CC1 [JZL184] (first compound 2 µM, partner dose 1 µM) it is 88.4%.
